The full ranking holds about 110,000 compounds; the median of “z-score” is about -0.1, and the highest 2% start at about 2. The list shows a part of the results.
Biological target: Metabotropic glutamate receptor 8 (Rattus norvegicus) (UniProt P70579)
Assay: mGluR8 Gi/Go-coupled signaling modulation – cell-based, rat, thallium flux, HTS, primary screen (AID 488969)
Conditions: HEK293 rat mGluR8, GIRK (G protein-gated inwardly rectifying potassium channel) thallium flux, FluoZin2; at 10 µM; stronger effect = higher value; submaximal glutamate (EC20) added with thallium

Sequence of UniProt P70579 (P70579 whole entry, looked up): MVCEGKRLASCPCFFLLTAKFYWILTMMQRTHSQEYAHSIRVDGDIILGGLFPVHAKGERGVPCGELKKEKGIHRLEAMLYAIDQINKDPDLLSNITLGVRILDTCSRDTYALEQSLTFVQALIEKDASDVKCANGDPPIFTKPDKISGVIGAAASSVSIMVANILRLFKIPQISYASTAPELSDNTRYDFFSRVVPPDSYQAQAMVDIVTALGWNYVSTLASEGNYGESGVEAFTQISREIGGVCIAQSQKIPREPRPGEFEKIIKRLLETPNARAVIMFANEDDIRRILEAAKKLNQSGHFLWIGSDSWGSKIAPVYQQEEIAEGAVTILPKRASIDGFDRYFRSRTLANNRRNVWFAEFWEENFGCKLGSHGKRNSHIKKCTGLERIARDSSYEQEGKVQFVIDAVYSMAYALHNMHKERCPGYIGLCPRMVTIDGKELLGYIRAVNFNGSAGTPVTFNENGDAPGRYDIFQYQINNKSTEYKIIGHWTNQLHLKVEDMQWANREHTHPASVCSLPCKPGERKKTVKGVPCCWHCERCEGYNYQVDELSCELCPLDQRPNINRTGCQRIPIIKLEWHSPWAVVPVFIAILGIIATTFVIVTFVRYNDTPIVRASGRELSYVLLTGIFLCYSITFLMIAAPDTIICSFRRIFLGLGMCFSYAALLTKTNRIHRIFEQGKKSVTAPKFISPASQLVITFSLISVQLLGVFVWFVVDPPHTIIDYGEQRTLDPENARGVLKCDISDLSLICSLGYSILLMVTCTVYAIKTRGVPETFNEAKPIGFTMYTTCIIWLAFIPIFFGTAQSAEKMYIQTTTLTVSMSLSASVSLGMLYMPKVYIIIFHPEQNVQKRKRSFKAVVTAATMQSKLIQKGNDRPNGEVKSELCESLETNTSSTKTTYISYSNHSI

| Compound | z-score |
| --- | --- |
| Cc1nn(-c2cccc(Cl)c2)c(Cl)c1/C=N/NC(=O)c1cccnc1 | -0.354 |
| COCCCNC(=O)CS(=O)Cc1nc(-c2ccccc2C)oc1C (configuration not stated) | -0.567 |
| Nc1ccc(-c2n[nH]c(=O)c3ccccc23)cc1N | -0.12 |
| CCCC(CCC(=O)NC1CCCCC1)C(=O)O (configuration not stated) | -0.0489 |
| COc1cccc(S(=O)(=O)NCc2ccc(C(=O)Nc3ccc(Cl)c(Cl)c3)cc2)c1 | -0.285 |
| COc1ccc(-c2nc3ccc([N+](=O)[O-])cc3o2)cc1 | 0.114 |
| CCCC(=O)N(c1ccc2oc(=O)sc2c1)S(=O)(=O)c1cccs1 | 0.627 |
| CCOc1ccc(C2/C(=C(/O)c3ccc(OC)cc3)C(=O)C(=O)N2c2cc(C)on2)cc1OC (configuration not stated) | -0.315 |
| O=C1CCc2cc(S(=O)(=O)N3CCC(C(=O)NC4CCCCCCC4)CC3)ccc2N1 | -0.173 |
| COc1ccc(CCNC(=O)CCNC(=O)c2ccc(Br)cc2)cc1OC | -0.112 |
| CCCc1oc(C(=O)O)cc1CN | -0.0602 |
| Cc1nn(C)cc1/C=N\NC(=O)Cc1ccc([N+](=O)[O-])cc1 | 0.136 |
| C#CCSc1nnc(-c2sc(-c3ccccc3)nc2C)n1C | -0.129 |
| CC(=O)Nc1cccc(C(=O)Nc2ccccc2N2CCOCC2)c1 | -0.0816 |
| COc1ccc(C2=C(Nc3ccccc3)c3ccccc3C2=O)cc1 | -0.143 |
| O=C(CN1C(=O)CCSc2ccccc21)Nc1ccc2c(c1)OCCO2 | -0.0786 |
| C=CCn1c(CNC(=O)c2cccs2)n[nH]c1=S | -0.133 |
| CCC(Sc1ncccc1C(=O)OC(C)C)C(=O)N1CCOCC1 (configuration not stated) | -0.0295 |
| CCCCC1=NN(C(=O)c2cocc2C)C(O)(C(F)(F)F)C1 (configuration not stated) | 0.0885 |
| COc1ccc(Cc2nnc(SCc3nc4ccccc4c(=O)[nH]3)n2C)cc1 | 0.419 |
| O=c1c2ccccc2ncn1CCCOc1ccccc1[N+](=O)[O-] | -0.198 |
| CC1CC(C)CN(CC(=O)N2c3ccccc3CCc3ccccc32)C1 (configuration not stated) | 0.434 |
| COc1ccc(C(=O)/C=C/c2cn(CN3CCN(C)CC3)c3ccccc23)cc1 | -0.629 |

| Compound | z-score |
| --- | --- |
| O=C(CC1CCCC1)NCCc1cn2ccccc2n1 | -0.194 |
| CSc1nc(-c2ccccc2)nn1C(=O)c1ccco1 | -0.179 |
| O=C(Nc1ccn(Cc2ccc(Cl)cc2)n1)c1ccc2c(c1)OCO2 | -0.0622 |
| COc1ccc(NC(=O)c2sc(NC(=O)COc3ccccc3)nc2C)cc1 | 0.0267 |
| CN(C)c1ccc(/C=N/N2C(=N)N(c3ccccc3)C(=S)C2=Nc2ccccc2)cc1 | 0.219 |
| COc1ccc(CCNc2oc(COc3ccccc3F)nc2C#N)cc1 | -1.13 |
| CCc1ccc(C2CC(=O)N3CN(c4ccccc4)CSC3=C2C#N)cc1 (configuration not stated) | -0.525 |
| Cn1nnc(-c2ccc(OCc3ccccc3F)cc2)n1 | -0.0311 |
| Cc1cc(C(=O)Nc2sc3c(c2C#N)CCC(C)C3)no1 (configuration not stated) | 0.635 |
| CN(C)c1ccc(C(=S)N2CCNCC2)cc1 | -0.0686 |
| COc1ccc2c(c1)[nH]c1c(=O)n(CCC3=CCCCC3)cnc12 | -0.212 |
| N/C(CN1CCCC1=O)=N\OC(=O)c1ccc(Cl)cc1 | 0.084 |
| NC(=O)C1(N2CCCCC2)CCN(c2nc(-c3ccc(Br)cc3)cs2)CC1 | -0.17 |
| Cc1ccc(NC(=O)CCC(=O)N/N=C/c2cc([N+](=O)[O-])ccc2O)cc1 | -0.0674 |
| COCc1nnc(NC(=O)c2sc3ccccc3c2Cl)s1 | 0.223 |
| Cc1cc(=O)[nH]c(N/N=C/c2ccco2)n1 | -0.115 |
| O=C(CN1C(=O)NC2(CCc3ccccc3C2)C1=O)Nc1ccc(Cl)cc1F (configuration not stated) | -0.119 |
| O=C(Nc1ccc2c(c1)OCO2)Nc1ccc(Br)cn1 | -0.234 |
| COc1cc(C(=O)Oc2cc(C)cc(C)c2)cc(OC)c1OC | -0.106 |
| NC(=O)CSc1nc2ccccc2n1Cc1ccccc1F | -0.701 |
| CCCC(=O)NC(=S)Nc1ccc(S(=O)(=O)Nc2ccc(OCC)cc2)cc1 | -0.292 |
| COc1ccc(N2C(=O)CC(Nc3ccc(C)cc3)C2=O)cc1 (configuration not stated) | -0.557 |
| COc1ccc(CNC(=O)c2c(C)nc3ccccn23)cc1 | -0.0334 |

| Compound | z-score |
| --- | --- |
| CC(C)On1c(SC(C)C)nc2ccccc2c1=O | -0.921 |
| CCCCSc1ccc(NC(=O)c2cccnc2)cc1 | -0.00962 |
| COc1ccc(NC(=S)NCCC(c2ccccc2)c2ccccc2)c(OC)c1 | -0.011 |
| O=C(Cn1c(=O)oc2ccccc21)Nc1nc(-c2ccccc2)cs1 | -0.0638 |
| O=C(NC1CCCCCC1)c1ccc2c(=O)n3c(nc2c1)CCCCC3 | 0.502 |
| O=c1[nH]cnc2c1c(-c1ccccc1)cn2-c1ccc(F)cc1 | -0.295 |
| O=C(OCc1c(Cl)cccc1Cl)c1cnccn1 | 0.418 |
| COc1ccccc1Nc1nc(N)nc(CN2CCc3ccccc3C2)n1 | -0.385 |
| Cc1cc(NC(=O)c2cccs2)n(-c2ccccc2)n1 | -0.267 |
| COc1ccc(NC(=O)Cc2coc3ccc4ccccc4c23)cc1S(=O)(=O)N1CCOCC1 | 0.493 |
| N#CC(C#N)=C1NC2(CCCC2)Cc2ccccc21 | -0.252 |
| CCc1cc([N+](=O)[O-])cc(CC)c1N | -0.408 |
| CC(C)c1ccc(NC(=O)COC(=O)COc2ccccc2)cc1 | -0.24 |
| CCCOc1ccc(C(=O)N/N=C/c2ccc(-c3ccc(S(=O)(=O)Nc4ncccn4)cc3)o2)cc1 | -0.447 |
| CCCCOc1ccc(C(=O)N2CCC(C)CC2)cc1 | -0.401 |
| O=C(Nc1ccccc1)c1ccc(CSc2ncccn2)cc1 | 0.0416 |
| CS(=O)c1ccccc1-c1nc(-c2cc(C(F)(F)F)cc(C(F)(F)F)c2)no1 (configuration not stated) | 0.148 |
| Cc1ccc(NC(=O)NC2CCCN2S(=O)(=O)c2ccc(Cl)cc2)cc1 (configuration not stated) | -0.69 |
| CC(C)CNC(=O)C(=O)NC1CCCC1 | -0.0648 |
| CCOC(=O)c1oc2ccccc2c1NC(=O)c1ccc(S(=O)(=O)N2CCCC2)cc1 | -0.0924 |
| Cc1nnc(NC(=O)c2ccc(S(=O)(=O)N(C)Cc3ccccc3)cc2)o1 | 0.37 |
| N#Cc1ccc(CSc2nnc(Nc3ccccc3)s2)cc1 | 1.18 |
| COc1cccc(C2CC(C(F)(F)F)n3ncc(C(=O)NCC4CCCO4)c3N2)c1 (configuration not stated) | -0.341 |

| Compound | z-score |
| --- | --- |
| Cc1ccc(CNC(=O)Cn2c(=O)c3sccc3n(Cc3cccc([N+](=O)[O-])c3)c2=O)cc1 | -0.301 |
| O=c1nc2s/c(=C\c3ccc(-c4ccccc4[N+](=O)[O-])o3)c(=O)n2nc1-c1ccccc1 | 0.305 |
| Cn1c(=O)c2nc(Cl)c(-c3ccccc3)nc2n(C)c1=O | -0.327 |
| c1ccc(-c2ccc(OCCOCCn3cncn3)cc2)cc1 | 0.335 |
| Oc1c(Br)cc(Br)cc1C=Nc1ccc2c(c1)OCO2 | -0.769 |
| CC(=O)Oc1ccc2c(C)cc(=O)oc2c1C(=O)c1ccccc1 | -0.483 |
| C=CCOc1c(Br)cc(CNc2ccc(NC(=O)C(C)C)c(OC)c2)cc1OC | -0.274 |
| CC(C)c1ccc(/C=C/C(=O)N2CCc3ccccc3C2)cc1 | -0.0752 |
| COc1ccc(-c2nn3c(-c4ccccc4)nnc3s2)cc1 | -1.28 |
| CC(Cl)C(=O)Nc1ncc(C(F)(F)F)cc1Cl (configuration not stated) | -0.166 |
| O=C(NCC(c1cccs1)N1CCOCC1)c1cc([N+](=O)[O-])cc([N+](=O)[O-])c1 (configuration not stated) | -0.338 |
| O=C(CSCc1cccc(Br)c1)NC1CC1 | 0.485 |
| Cc1noc(C)c1S(=O)(=O)N1CCC(C(=O)NC2CCN(Cc3ccccc3)CC2)CC1 | -0.163 |
| CSCCC(NS(=O)(=O)c1ccc(Cl)cc1)C(=O)OCc1cccc(Cl)c1 (configuration not stated) | 0.421 |
| CC(C)[C@H](NS(=O)(=O)c1ccc2c(c1)OCCO2)C(=O)OCC(=O)Nc1ccccc1Cl | -0.251 |
| Cc1ccc(S(=O)(=O)N2CCOCC2)cc1C(=O)NCc1cccnc1 | 0.156 |
| Cc1cc(C)nc(N/N=C/c2ccccc2OCc2ccc([N+](=O)[O-])cc2)n1 | 0.257 |
| Cc1ccc(C(=O)CSc2nc(C)cc(C)c2C(N)=O)cc1 | 0.0818 |
| CC1(C)CC(=O)C2=C(C1)OC(N)=C([N+](=O)[O-])C2c1cccs1 (configuration not stated) | -0.0878 |
| O=C1C(Cl)=C(NCC2CCCO2)C(=O)N1c1cccc(Cl)c1Cl (configuration not stated) | -0.317 |
| CC(=O)c1cccc(NC(=O)c2cc(-n3cnnc3)ccc2Cl)c1 | -0.0767 |
| COc1ccc(CN2CCOCC2)cc1OC | 0.117 |
| CCNS(=O)(=O)c1c(C)cc(N2CCCC2=O)cc1C | -0.237 |

| Compound | z-score |
| --- | --- |
| O=c1c(Cc2ccc(F)cc2)c(O)ccn1C1CC1 | -0.00693 |
| CCN(CC)c1ccc(/C=N/Nc2ccccc2)c(O)c1 | 0.14 |
| O=C(Cc1ccccc1)NC(=S)Nc1ccc(N2CCCCC2)cc1 | 0.136 |
| O=C(Oc1coc(CSc2nnc(NC(=O)c3cccs3)s2)cc1=O)c1ccccc1 | -0.179 |
| COc1cc(C(=O)Nc2nc(-c3ccc(C)cc3)cs2)ccc1OCC(=O)N1CCOCC1 | 0.392 |
| O=C(Nc1ccccc1C(F)(F)F)N1CCC(n2c(=O)[nH]c3ccccc32)CC1 | 0.115 |
| c1ccc2c(c1)ccc1nnc(SCc3ccc4c(c3)OCCO4)n12 | -0.397 |
| N#Cc1nc(COc2ccc(Cl)cc2)oc1NCc1ccc2c(c1)OCO2 | -0.0603 |
| CCOC(=O)c1ccc2[nH]c(C)c(C)c2c1 | 0.637 |
| Cc1ccsc1-c1n[nH]c(=S)n1C1CCCCC1 | 0.261 |
| CN(NC(=O)c1ccc(Cl)cc1)c1cccc(Cl)n1 | -0.0482 |
| O=C(Nc1cccc(Cl)c1)N(Cc1nc2ccccc2c(=O)[nH]1)C1CCCC1 | -0.529 |
| Oc1c(C(c2ccco2)N2CCN(C(c3ccccc3)c3ccccc3)CC2)sc2ncnn12 (configuration not stated) | -0.33 |
| COc1ccc(S(=O)(=O)NC(C)C(=O)Nc2cccc(C(C)=O)c2)cc1 (configuration not stated) | 0.4 |
| Cc1ccc(CN2CCc3c(OCC(=O)Nc4cccc(C)c4C)cccc3C2=O)cc1 | -0.0788 |
| Cc1c(C(=O)O)oc2c1/C(=N\O)CC(C)(C)C2 | -0.491 |
| CN1C(=O)/C(=C/c2ccccc2OCc2ccc(F)cc2)N(C)C1=S | -0.221 |
| Cc1ccc(C(c2nnnn2Cc2ccccc2)N2CCN(Cc3ccccc3)CC2)cc1 (configuration not stated) | -0.168 |
| CNC(=S)NNC(=O)COc1cccc(C)c1C | 0.00116 |
| O=S(=O)(c1cc(-c2nc3ccccc3s2)ccc1Cl)N1CCOCC1 | 0.245 |
